The results in this text go back to article PMC6212790.

The other results are listed elsewhere or left out. At the low end of the ranking, values are background and their order means little.

The assay concerns the target T1, GST-Rok (full length) (UniProt O34857).
T1 sequence: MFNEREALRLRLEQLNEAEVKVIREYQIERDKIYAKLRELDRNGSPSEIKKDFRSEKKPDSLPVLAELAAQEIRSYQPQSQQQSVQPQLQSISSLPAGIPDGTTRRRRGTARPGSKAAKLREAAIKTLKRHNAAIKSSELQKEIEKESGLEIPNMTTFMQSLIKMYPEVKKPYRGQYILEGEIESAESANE
In words: protein binding microarray.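 Note: rank score from −0.5 (least bound) to 0.5 (best bound).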 The conditions noted are these: Rok is a gene silencer of Bacillus subtilis; high values mean tight binding; most listed sequences are background and not binding sites; double strand, one strand shown.
CGCGGTAG had a binding signal of 0.00808 E-score.

As to AGATCCCT, the binding signal is 0.0126 E-score.

On to CCTAACAC, for which the binding signal was -0.0857 E-score.

On to ATGGAGGA, for which the binding signal is -0.151 E-score.

Turning to CGGGAGAG, the binding signal was -0.197 E-score.

As for CGTATAAC, the binding signal was determined as 0.138 E-score.

As to ACTCAAAT, the binding signal was 0.115 E-score.

As to ACCGCGCC, the binding signal is -0.253 E-score.

As to GGAACAAC, the binding signal is -0.0535 E-score.

CTATTCTA came in with a binding signal of 0.128 E-score.

Take GACGTCGA: the binding signal was -0.154 E-score.

For AACGCTTC, the binding signal was -0.265 E-score.

For the sequence AAACGGTG, the binding signal was 0.0437 E-score.

In turn, ATCACGCG came in with a binding signal of 0.0547 E-score.

On to ACAGCTAG, for which the binding signal is -0.00513 E-score.

In the case of GAATGATA, the binding signal was determined as 0.304 E-score.

In turn, ATGAGATA had a binding signal of 0.346 E-score.

In the case of AGACGACC, the binding signal is -0.246 E-score.

In turn, CCTATGTC gave a binding signal of 0.113 E-score.

The sequence GATAGGTA gave a binding signal of 0.26 E-score.

As for AGTCTAGG, the binding signal was -0.237 E-score.

As to GTGGTCAA, the binding signal is -0.0982 E-score.

On to AGAACGGA, for which the binding signal is -0.066 E-score.

Regarding TTGCAAAA, the binding signal was -0.0231 E-score.

As for AGAGACGA, the binding signal was -0.259 E-score.

With AAACTTGG, the binding signal is -0.0876 E-score.

For the sequence CATTGCTA, the binding signal was determined as 0.114 E-score.

With CAGGACTG, the binding signal was -0.179 E-score.

Sequence CGAGGTAG yielded a binding signal of 0.203 E-score.

CTGAACAG: the binding signal was -0.148 E-score.

Sequence AATACAGC returned a binding signal of 0.111 E-score.

In the case of GCGTCAGC, the binding signal was -0.303 E-score.

CTTGCGAC: the binding signal was -0.22 E-score.

The sequence GTATATAC showed a binding signal of 0.432 E-score.

Regarding TCAAAAGA, the binding signal was -0.192 E-score.

Consider TCGGAAGA, for which the binding signal was -0.11 E-score.

For the sequence CCGGGAAG, the binding signal was -0.191 E-score.

ATTCGACA yielded a binding signal of 0.0568 E-score.

Regarding GGGATGAC, the binding signal is -0.0151 E-score.

On to CATCTGTC, for which the binding signal is -0.261 E-score.

On to GAGGACCC, for which the binding signal is -0.225 E-score.

AGAGCCCC: the binding signal was -0.351 E-score.

As to AGCGAAGC, the binding signal is -0.219 E-score.

In the case of GGCTCTGA, the binding signal is -0.197 E-score.

For the sequence GGTTAGGA, the binding signal is -0.222 E-score.

As to ACCGATGA, the binding signal is -0.00751 E-score.

Take AGGGTAAG: the binding signal was -0.147 E-score.

AAATCCCG: the binding signal is -0.0458 E-score.

As for CTTTGGAA, the binding signal is -0.132 E-score.

Turning to CGAAGACG, the binding signal was -0.254 E-score.

On to AAAAGCGG, for which the binding signal was -0.0651 E-score.

For the sequence GGGTCACC, the binding signal is -0.319 E-score.

TACGCGGA: the binding signal stood at 0.135 E-score.

On to TACTACGA, for which the binding signal was found to be 0.275 E-score.

ATAAGGCG: the binding signal was -0.0829 E-score.

As to ACGAAGTC, the binding signal is -0.00561 E-score.

In the case of AACGCATG, the binding signal is -0.00479 E-score.

Consider GGAGCAGA, for which the binding signal is -0.132 E-score.

The sequence AGATTGTA displayed a binding signal of 0.285 E-score.

Take CATTGAGA: the binding signal is -0.0127 E-score.

On to AGAGACAG, for which the binding signal is -0.115 E-score.

GCATAACC: the binding signal was found to be 0.0212 E-score.

Take CCCTGGTC: the binding signal is -0.264 E-score.

For AAGAGCTG, the binding signal was -0.0926 E-score.

In the case of ATTTTGGC, the binding signal is -0.0022 E-score.

On to AGATCGTC, for which the binding signal was -0.0656 E-score.

With AGCGCCAT, the binding signal was -0.082 E-score.

ACTGCACC returned a binding signal of 0.131 E-score.

On to TTATGAAA, for which the binding signal worked out at 0.162 E-score.

CTTAATCC: the binding signal was -0.0703 E-score.

Take CACACAGG: the binding signal was -0.201 E-score.

The sequence CAGCGACA had a binding signal of 0.0869 E-score.

For CCGCGGGC, the binding signal is -0.359 E-score.

For GCACAATA, the binding signal turned out to be 0.247 E-score.

Consider CCCCGTAG, for which the binding signal was -0.245 E-score.

Regarding ATACCTGG, the binding signal worked out at 0.0327 E-score.

In the case of CCCGCTCG, the binding signal was -0.254 E-score.

The sequence AGCTAATC had a binding signal of 0.162 E-score.

Consider TACGAGTA, for which the binding signal is 0.098 E-score.

For AGGTCCGG, the binding signal is -0.288 E-score.

Consider CGGTGACA, for which the binding signal is 0.0245 E-score.

Turning to CACCAGGG, the binding signal was -0.358 E-score.

On to CTAGAATC, for which the binding signal was 0.211 E-score.

With AGTGTCCA, the binding signal was -0.0617 E-score.

Consider AGCACATG, for which the binding signal was -0.117 E-score.

Take CGCCCACG: the binding signal was -0.271 E-score.

AAGAATAC: the binding signal was determined as 0.0942 E-score.

As for TGGGCCCA, the binding signal was -0.321 E-score.

The sequence ATTTGAAC had a binding signal of 0.149 E-score.

Regarding ACTCTGAG, the binding signal was -0.154 E-score.

For CACGGTCA, the binding signal was -0.0115 E-score.

As to GTACAAAA, the binding signal was 0.266 E-score.

For the sequence CCGTACGA, the binding signal was -0.0569 E-score.

Consider ACCTTGTA, for which the binding signal was -0.0398 E-score.

With AAGATGGG, the binding signal was found to be 0.0446 E-score.

In the case of CTGACTGA, the binding signal was -0.122 E-score.

In the case of CGGCGACC, the binding signal is -0.323 E-score.

In the case of TACTATGA, the binding signal was determined as 0.228 E-score.

As to AGGTACTG, the binding signal came out at 0.128 E-score.

Regarding GGCTGCGA, the binding signal is -0.0711 E-score.

As to GATTTTGC, the binding signal was 0.0176 E-score.

In the case of CTGCCCAC, the binding signal is -0.168 E-score.

As to GAGTCCGA, the binding signal is -0.026 E-score.

As for CGTACTAC, the binding signal worked out at 0.339 E-score.

Consider GAACAGCA, for which the binding signal is -0.149 E-score.

As to CTCTTCAG, the binding signal was -0.0656 E-score.

In the case of ATTCTGGG, the binding signal is -0.155 E-score.

The sequence ATCATGAT returned a binding signal of 0.0908 E-score.

Take GCCGGTAC: the binding signal was -0.103 E-score.

For GATCAAGA, the binding signal stood at 0.066 E-score.

Regarding CGTTAAGC, the binding signal was -0.167 E-score.

AGTCCGGG: the binding signal was -0.313 E-score.

For AATATACA, the binding signal stood at 0.388 E-score.

Regarding GAGAACCA, the binding signal was -0.0434 E-score.

Take AGTCCACG: the binding signal is -0.173 E-score.

For AGATCTAA, the binding signal was 0.163 E-score.

In the case of ACCTTGCT, the binding signal is -0.111 E-score.

In the case of CTTCGTTA, the binding signal is 0.0316 E-score.

Regarding AGCTTCGG, the binding signal is -0.282 E-score.

As to ATGGTCCG, the binding signal is -0.16 E-score.

For ATGTTCGG, the binding signal was -0.135 E-score.

CAACTGTA gave a binding signal of 0.0765 E-score.

With AGCGTCAT, the binding signal was -0.0894 E-score.

The sequence AAGTATCC had a binding signal of 0.0627 E-score.

In the case of CTCCAAGC, the binding signal was -0.344 E-score.

ATTTTAGC yielded a binding signal of 0.188 E-score.

With ACCGACCA, the binding signal is -0.202 E-score.

For the sequence TCACGGGA, the binding signal is -0.221 E-score.

For GACCCAAC, the binding signal was -0.245 E-score.

In the case of CGTGACTC, the binding signal is -0.11 E-score.

GTGAGAGA: the binding signal was -0.123 E-score.

Regarding CAAGCTAC, the binding signal was -0.00347 E-score.

On to AACATTTG, for which the binding signal was determined as 0.0986 E-score.

For the sequence ATGACGTC, the binding signal is -0.0569 E-score.

Consider AAACCAGA, for which the binding signal turned out to be 0.00102 E-score.

Sequence AGTCAAAA yielded a binding signal of 0.108 E-score.

On to GATTCCGC, for which the binding signal was -0.215 E-score.

On to GAGTCATA, for which the binding signal was -0.0124 E-score.

Turning to GCTGGAGA, the binding signal is -0.105 E-score.

Take AACCAAAA: the binding signal is 0.15 E-score.

With ACTCCGGG, the binding signal is -0.202 E-score.

AGAAGTAT yielded a binding signal of 0.334 E-score.

For GGCCCCAA, the binding signal was -0.305 E-score.

ACCCACCT: the binding signal is -0.0596 E-score.

AAGCCTAT: the binding signal came out at 0.106 E-score.

ACACATGG returned a binding signal of 0.085 E-score.

For the sequence CATCGGCC, the binding signal is -0.265 E-score.

In the case of CCCGCCCA, the binding signal is -0.119 E-score.

Turning to CTATACGA, the binding signal was -0.0102 E-score.

With CACCAGTC, the binding signal was -0.195 E-score.

ATACCGCG registered a binding signal of 0.132 E-score.

On to ACTTTGTC, for which the binding signal was -0.0997 E-score.

For the sequence ACAAAGCG, the binding signal was -0.0938 E-score.

With TCGGGCAA, the binding signal was -0.0936 E-score.

Turning to CGATGGTC, the binding signal is -0.202 E-score.

On to AGCCAATG, for which the binding signal is -0.117 E-score.

Sequence GACAAACC registered a binding signal of 0.0214 E-score.

Take TGATACCA: the binding signal came to 0.183 E-score.

Consider CATCATTC, for which the binding signal is -0.105 E-score.

Consider GACTGTAA, for which the binding signal is -0.0385 E-score.

In the case of AGCTGTAC, the binding signal was 0.0948 E-score.

As for CCGACCAG, the binding signal was -0.273 E-score.

In the case of GCTTTGAA, the binding signal was 0.00953 E-score.

For the sequence AACGACGT, the binding signal worked out at 0.0544 E-score.

GTGCGCAC returned a binding signal of 0.201 E-score.

With CAGAGGGC, the binding signal is -0.261 E-score.

Take TATGGGGA: the binding signal is -0.235 E-score.

Turning to CCGCGGGA, the binding signal is -0.175 E-score.

Consider AATTCTCT, for which the binding signal was determined as 0.12 E-score.

As for ATCGCCTC, the binding signal was -0.0171 E-score.

With GCATGAAC, the binding signal was -0.0782 E-score.

For the sequence CGTGTCTA, the binding signal was found to be 0.213 E-score.
